Drawing on publication PMC12136788, this text covers binding signal for six molecules.

The other results are listed elsewhere or left out.

First the molecules themselves.
T1: UNK ZnF1-3 (human, UniProt Q9C0B0 31-174)
T1 sequence: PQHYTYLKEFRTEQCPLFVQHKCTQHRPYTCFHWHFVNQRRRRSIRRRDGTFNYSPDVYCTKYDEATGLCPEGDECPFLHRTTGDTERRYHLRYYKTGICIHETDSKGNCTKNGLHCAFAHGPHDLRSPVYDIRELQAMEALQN

B1: chr4:17845017:17845018:+_ENSG00000109805_ENST00000514176|hu_mus|hu_hu_hu_mus_False|1_18 (ssRNA)
RNA: GGGAGUUCUACAGUCCGACGAUCGCUCUCUUAACUUGUAUCUUCAUUAAGGAACUCUGCAAGGUUAAGUUUACUUUUCUGUAGCGCAGCUGUUUUGGCUCGUCUGGGUAAUCUCAUUUCAUUUCUGGAUGGUGGUUUGGAACUCAACAGAGGAUUGAGCAUCA
B2: chr10:70097624:70097625:+_ENSG00000096746_ENST00000354695|hu_mus|FALSE|FALSE (ssRNA)
RNA: GGGAGUUCUACAGUCCGACGAUCCUUUGAUUUCACUCCUGCUACUCCUGAAGAUCUCAAUAUACCUUGAAAGAACUGAACUAUUUCCUCUUUGCUGCAACCAAAUGGCAGUCCACGAAGUCGCACGGUCCCAUCGCUAGCGUCCAACAGAGGAUUGAGCAUCA
B3: 83263107_83263227_229_5pUTR_ENSMUSG00000031715_ENSMUST00000043359|mouse|control|control (ssRNA)
RNA: GGGAGUUCUACAGUCCGACGAUCAGCUCUCACGCGCGAGGGCUCCGCCACCGACCCGAGCCGGCCCAGCCGCGCCGCUCGCCUCGCCGUCCUCUUCCGCGGGACUCUGCUCCACAGGCGUUUACCUCACGGCGGGAAUCACGUCAACAGAGGAUUGAGCAUCA
B4: chr4:25749455:25749456:-_ENSG00000091490_ENST00000264868|hu_hu|hu_hu_hu_mus_False|28_98 (ssRNA)
RNA: GGGAGUUCUACAGUCCGACGAUCGCACUAUGACCUCCCCUAGAAAACACAGGGGGAAAAAAUGUAAACCAAUGUACAAUGUUAUCGCCUUCCCUGUGUGUGGAGUGACAAACAAUUGGCUCCUUCUAGCUGCUGGAUUUGGGACAACAGAGGAUUGAGCAUCA
B5: chr11:100445569:100445570:-_ENSMUSG00000014195_ENSMUST00000014339|mus_mus|FALSE|FALSE (ssRNA)
RNA: GGGAGUUCUACAGUCCGACGAUCUGCAUCAAAAUCGCCCAUAUUCAUGCCCUCCUCAUCCAAGUCCUGUCCACUGUCAUAACGAGUCUUUUUCUUGGGAUCAGAGAGGAUGGUAAAGGCCUCUCCCACUUCCUUAAACUUCUUCAACAGAGGAUUGAGCAUCA
B6: 120221762_120221882_267_CDS_ENSG00000164096_ENST00000399075|human|control|control (ssRNA)
RNA: GGGAGUUCUACAGUCCGACGAUCACCGGAAACUGAGCGGAGUCCGGCCGCCUGCGCAGUGCGCCGCGCCCCGGGUUCCGGAAUGCACUCUGAACCUACUCUUCCCAGCGCGCAGGCGCCUGGCUCGGCUUUCCGCUGCCUCCGCAACAGAGGAUUGAGCAUCA

The target of this assay is T1, UNK ZnF1-3. As to the kind of experiment: nsRBNS (natural sequence RNA bind-n-seq); RBNS binding buffer (assumed for nsRBNS): 25 mM Tris pH 7.5, 150 mM KCl, 3 mM MgCl2, 0.01% Triton X-100, 500 ug/ml BSA, 20 U/ml SUPERase-In, 4 C; UNK is unkempt and MSI1 is Musashi-1; names of the RNAs are library labels; protein concentration not given here; high values mean tight binding.
For B1, the binding signal worked out at 0.464 enrichment R. With B2 the figure was 0.93 enrichment R; with B3, 0.623 enrichment R; with B4, 1.19 enrichment R. As for B5, the figure is 1.07 enrichment R; as for B6, 0.282 enrichment R.
